Source: PubChem BioAssay (NCI)
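Where inhibition never reached the appropriate level, the endpoint shown equals the highest concentration tested. Otherwise, values were interpolated linearly from a five-concentration, 48-hour dose response in 96-well plates. GI50 marks 50% less growth. TGI marks complete inhibition of growth.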

system: NCI-H322M lung; test: NCI tumour cell line growth inhibition, 48 h

Question: For `Cn1cc(-c2nc(N)nnc2-c2c[nH]c3ccc(F)cc23)c2cc(Br)cnc21`, which GI50 is on record?
Answer: Its GI50 is 0.305 µM.

Question: What about the TGI of the same compound?
Answer: The TGI was 16.2 µM.

Question: Which results are given for `C[C@H]1[C@H](C)CC[C@]2(COC(=O)CCC(=O)NCC#CCN3CCNCC3)CC[C@]3(C)C(=CC[C@@H]4[C@@]5(C)CCCNC(C)(C)[C@@H]5CC[C@]43C)[C@H]12`?
Answer: GI50: 15.5 µM; TGI: 28.8 µM

Question: How did the GI50 turn out when `COCOc1cc2c(=O)c(C)c(C(=O)N[C@@H](Cc3ccccc3)C(O)C(=O)NCc3ccccc3)oc2cc1OC` (stereo not given in full) was run?
Answer: The GI50 was > 100 µM.

Question: And the TGI?
Answer: Its TGI is > 100 µM.

Question: With `COc1cc(C2C(C(=O)OCc3ccccc3)=C(C)Nc3nc4ccccc4n32)cc(OC)c1OC` (stereo not given) as the compound, how does the GI50 read?
Answer: Its GI50 is 4.94 µM.

Question: What about the TGI of the same compound?
Answer: Its TGI is 59 µM.

Question: How did the GI50 turn out when `O=C(Nc1ccc(OCc2ccc(Cl)cc2)cc1)Nc1ccc(Cl)c(C(F)(F)F)c1` was run?
Answer: The GI50 was 2.48 µM.

Question: And the TGI?
Answer: The TGI was 8.91 µM.
